In PubChem BioAssay AID651820 (National Center for Advancing Translational Sciences (NCATS), 2012):
Values joined by “and” are separate entries in the source; they are usually repeats but may differ in a detail not shown here. Equal entries are not always repeated. The campaign covered roughly 340,000 compounds. About 12,000 (3.5%) were called active. The inconclusive results got no clear call from the source; some entries with a clear call stand among them for comparison. Calls come from the whole dose curve; as a rule, active = well fitted inhibition curve with a large enough effect; inconclusive = small, poorly fitted or top-dose-only effect, or another doubt; inactive = no such curve, though single readings can be large or run the other way. Potencies of inconclusive entries are doubtful fits and often do not repeat.
Potency is the fitted concentration of half-maximal effect; tags give direction and shape of the fitted curve.

Experiment: qHTS Assay for Inhibitors of Hepatitis C Virus (HCV)
Conditions: Huh7.5.1 HCVcc-Cre (HCVcc is cell-culture hepatitis C virus) infection, luciferase reporter, 44 h; series mostly up to 41.8 µM
Summary of the method: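 Whole-lifecycle infectious HCVcc-Cre system; cells 1,000/well, compound then virus (~0.5 moi) added 4 h after plating, 44 h culture. Luciferase read 15 sec following 15 min substrate incubation, room temp.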
In the case of COc1ccc(OC(C)C(=O)N(C)Cc2nc(-c3ccc(C)cc3)no2)cc1 (centres undefined), the Potency is reported as active: 14.1 µM.
For CCOc1cc(C(=S)N2CCC(O)CC2)ccc1OS(=O)(=O)c1ccc(Br)cc1, the Potency was inconclusive: 3.98 µM [inhibitor, partial curve].
For COc1ccccc1-c1cc(C(F)(F)F)nc(S(=O)(=O)CCCC(=O)NC(C)C)n1, the Potency was inconclusive: 31.6 µM [inhibitor, single point].
In the case of O=C(c1cn(-c2ccccc2)nc1-c1ccccc1)N1CCN(c2ccccn2)CC1, the Potency is reported as active: 10 µM.
In the case of O=C(O)C1CCC(Cn2c(SCc3cc(=O)n4ccccc4n3)nc3ccsc3c2=O)CC1 (centres undefined), the Potency is reported as “inactive”.
For CCN(CC)S(=O)(=O)c1ccc(N2CCOCC2)c(NC(=O)c2ccc(=O)[nH]c2)c1, the Potency was “inactive”.
For COc1cc(/C=N\NC(=O)CNC(=O)C(c2ccccc2)c2ccccc2)ccc1O, the Potency was inconclusive: 3.16 µM [inhibitor, partial curve].
For CC[C@H](C)[C@H](NC(=O)OCc1ccccc1)C(=O)OCC(=O)N1CCN(c2ccc(OC)cc2)CC1, the Potency was active: 12.6 µM.
In the case of CCOC(=O)/C=C1\NC2(CCCCC2)Cc2cc(OC)c(OC)cc21, the Potency is reported as inconclusive: 5.01 µM [inhibitor, full curve].
In the case of CCSc1nc(N)c2c(C)c(C)sc2n1, the Potency is reported as “inactive”.
In the case of Cc1ccc(NC(=O)CNc2ccccc2N2CCCC2=O)cc1S(=O)(=O)N1CCOCC1, the Potency is reported as inconclusive: 31.6 µM [inhibitor, single point].
With O=C(NCc1ccccn1)c1ccc(Cn2c(=S)[nH]c3ccccc3c2=O)cc1 the Potency was inconclusive: 7.08 µM [inhibitor, partial curve].
With Cc1ccc(N(Cc2ccccc2)C(=O)c2cc(S(=O)(=O)N3CCOCC3)ccc2Cl)cc1 the Potency was inconclusive: 11.2 µM [inhibitor, single point].
In the case of CN(/N=C/c1cc(Cl)cc(Cl)c1O)c1c(Cl)cccc1[N+](=O)[O-], the Potency is reported as “inactive”.
In the case of Cc1ccccc1C(=O)Oc1ccc2ccc(O)cc2c1, the Potency is reported as “inactive”.
With COC(=O)c1[nH]c2cc(OC)ccc2c1NC(=O)CCN1CCCC(C)(C)C1 the Potency was inconclusive: 17.8 µM [inhibitor, single point].
For Cn1c(COc2ccccc2)nnc1SCc1nc2ccccc2[nH]1, the Potency was “inactive”.
With CCOc1ccc(-n2nc3c(=O)[nH]nc(C)c3c2C)cc1 the Potency was “inactive”.
In the case of OCCCCNCc1cc(Br)ccc1OCc1ccccc1, the Potency is reported as inconclusive: 31.6 µM [inhibitor, single point].
For CCOc1ccc(S(=O)(=O)N2CCCCC2)cc1NC(=O)CN1C(=O)NC(C)(c2ccc(C)cc2)C1=O (centres undefined), the Potency was active: 10 µM.
With CCOc1ccc(OCc2ccc(C(=O)Nc3ccc(Cl)cn3)o2)cc1 the Potency was inconclusive: 31.6 µM [inhibitor, single point].
For CCN(CC)S(=O)(=O)c1cccc(C(=O)Nc2ccccc2)c1, the Potency was inconclusive: 22.4 µM [inhibitor, single point].
For CC1Cc2cc(S(=O)(=O)CCC(=O)N3CCN(c4ccccc4)CC3)ccc2N1C(=O)C1CC1 (centres undefined), the Potency was inconclusive: 11.2 µM [inhibitor, single point].
For C/C(=N\NC(=O)c1ccccc1)c1c(O)n(Cc2ccccc2)c(=O)[nH]c1=O, the Potency was “inactive”.
For COc1cc(NC(=O)[C@H](C)NC(=O)N2CCn3c2nc2ccccc23)cc(OC)c1, the Potency was “inactive”.
With Cn1nc([N+](=O)[O-])c(C(C#N)c2ccccn2)c(Cl)c1=O (centres undefined) the Potency was inconclusive: 31.6 µM [inhibitor, single point].
For Cc1ccsc1C(=O)C1CCCN(Cc2cnc(N3CCOCC3)s2)C1 (centres undefined), the Potency was inconclusive: 31.6 µM [inhibitor, single point].
For CC(=O)c1c(C(C)=O)c(C)n(Cc2ccc(Cl)cc2)c1C, the Potency was inconclusive: 12.6 µM [inhibitor, partial curve].
With CCN(CC(=O)Nc1c(C(=O)OC)[nH]c2ccccc12)c1ccc2c(c1)OCO2 the Potency was inconclusive: 31.6 µM [inhibitor, single point].
For COC(=O)c1cc2ccccc2c(-c2c(OC)c(C(=O)OC)cc3ccccc23)c1OC, the Potency was active: 10 µM.
With C=CCN(c1ccccc1)S(=O)(=O)c1cccc(C(=O)N2CC(C)CC(C)C2)c1 (centres undefined) the Potency was active: 7.08 µM.
For NNC(=O)c1sc2cc(C(F)(F)F)cnc2c1-c1cccnc1, the Potency was “inactive”.
With COC(=O)C(CCSC)NC(=O)C(NC(=O)C1CCC(C)CC1)C(C)C (centres undefined) the Potency was “inactive”.
For COc1ccc(N2CCN(CCCNC(=O)CCC(=O)N3CCOc4ccc(Cl)cc43)CC2)cc1, the Potency was inconclusive: 10 µM [inhibitor, partial curve].
With C=CCn1c(NCc2cc(Cl)ccc2O)nc2ccccc21 the Potency was inconclusive: 6.31 µM [inhibitor, partial curve].
In the case of C=CCn1c(SCC(=O)Nc2ccc3c(c2)OCO3)nc2ccccc2c1=O, the Potency is reported as inconclusive: 12.6 µM [inhibitor, single point] and inconclusive: 3.16 µM [inhibitor, single point].
With CCCS(=O)(=O)N1CCCC(C(=O)NCCCN2CCN(c3cccc(Cl)c3)CC2)C1 (centres undefined) the Potency was inconclusive: 8.91 µM [inhibitor, partial curve].
In the case of CC1=NN(C(C#N)c2ccc(F)cc2)C(c2ccccc2)C1 (centres undefined), the Potency is reported as “inactive”.
In the case of NC(=O)c1ccsc1NC(=O)c1ccc(S(=O)(=O)N2CCCc3ccccc32)cc1, the Potency is reported as active: 11.2 µM.
In the case of COC(=O)c1c(C)oc2cc(Br)c(OCC(=O)C(C)(C)C)cc12, the Potency is reported as inconclusive: 25.1 µM [inhibitor, single point].
With COc1cccc(CN2CC(C(=O)N(C)CC3CCOCC3)CCC2=O)c1 (centres undefined) the Potency was “inactive”.
For O=C(NCCCN1CCOCC1)c1ccc2c(c1)N(Cc1cccc(Cl)c1)C(=O)c1ccccc1S2=O (centres undefined), the Potency was inconclusive: 11.2 µM [inhibitor, partial curve].
In the case of Cc1noc2ncnc(Sc3c(Cl)cccc3Cl)c12, the Potency is reported as inconclusive: 14.1 µM [inhibitor, single point].
With CN(Cc1nc2ccccc2c(=O)[nH]1)C(=O)COc1ccccc1Cc1ccccc1 the Potency was inconclusive: 22.4 µM [inhibitor, single point].
